The list shows a part of the results.
system: T1, Caupolican (Caup) homeodomain DNA-binding domain; test: PBM E-score (8-mer, recovered from the published 9-mer minima) (E-score (dimensionless, -0.5 to 0.5)); Drosophila protein; higher = stronger relative binding preference, active = 0.31 or more
T1 sequence: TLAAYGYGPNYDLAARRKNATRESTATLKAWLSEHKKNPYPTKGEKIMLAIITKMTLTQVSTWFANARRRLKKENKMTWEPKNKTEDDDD
In short: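 Caup's homeodomain DNA-binding domain (residues 214-303) was made by in vitro transcription and translation and applied at 100 nM to custom-designed protein binding microarrays. Each value is an enrichment score that gives relative binding preference for a short DNA word, with higher meaning stronger. The 8-mer values were recovered from published 9-mer scores, each of which was the minimum of its two constituent 8-mer scores. A cutoff of 0.31 marks candidate sites.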

Sequence	PBM E-score
CAGTGATA	inactive: 0.0736
CATCCTCA	inactive: 0.0114
AATTCCAG	inactive: 0.0238
AATTTAAG	inactive: 0.0614
AGTGTCCA	inactive: 0.0872
CGACGCCA	≥ -0.107
AAAAGCGG	inactive: -0.177
CCGCGAAG	inactive: -0.228
AATTGTAG	inactive: 0.21
CTTTATGA	inactive: 0.0237
GAGAGTCC	inactive: -0.209
ACCTCGAT	inactive: -0.0401
AAGACAGG	inactive: 0.0947
CGACTAAA	inactive: 0.0743
AGCACAGG	inactive: -0.0841
TCACTAAA	inactive: 0.0581
ATCACGAA	inactive: 0.104
AAATAAAG	inactive: 0.0192
TCCGCGAA	≥ -0.0716
GACAGTTA	inactive: 0.054
AGATCACG	inactive: 0.0499
AGAACTGC	inactive: -0.0543
ACCTAGAC	inactive: 0.0342
CAGGTCCG	inactive: -0.117
AGCTTAGG	inactive: -0.036

Sequence	PBM E-score
CCGGTCCA	inactive: -0.155
CGGGGGAA	inactive: -0.26
AGTAGGAA	inactive: -0.0405
AGGTCCCA	inactive: -0.0895
CCAGGTGC	inactive: -0.123
AGTAGGTC	inactive: -0.0514
TACTCCTA	inactive: 0.0404
GGTGTGCA	inactive: -0.0729
CACGTTTA	inactive: 0.136
CTCACCTA	inactive: 0.0316
CTCCAAAC	inactive: 0.0426
CTAGTTCC	inactive: 0.0302
CCGTGAAG	inactive: -0.101
GTCATAGA	inactive: 0.089
ATTGGTGG	inactive: -0.0526
ACGTACAT	active: 0.337
GGGGTGAA	inactive: -0.164
GCAGTCCC	inactive: -0.194
CTTAATCC	inactive: -0.0587
CATCGGTA	inactive: 0.0702
GTTCTTAA	inactive: 0.0719
CTTTCTGC	inactive: -0.137
CTCGACCA	inactive: -0.116
CAGAATCA	inactive: 0.0559
GGTGCACC	inactive: -0.103

Sequence	PBM E-score
AACTATAG	inactive: 0.066
CCTAGTAA	inactive: 0.088
AATGTACA	active: 0.407
CATCATCC	inactive: 0.0524
GGCTACGA	inactive: -0.0105
ACGCAGTC	inactive: -0.108
AGGACCCA	inactive: -0.214
AATTGGAC	inactive: 0.0915
CCATGCGC	inactive: -0.129
CCGAGGCA	inactive: -0.104
CACGCCTC	inactive: -0.134
CCGTCTAC	inactive: -0.0405
CTTTCAAA	inactive: 0.0275
ATTGCTCG	inactive: -0.00915
ACCTGACT	inactive: 0.0678
AAACGGAT	inactive: 0.115
GCCGAATA	inactive: -0.00585
GCACTTAA	inactive: 0.107
TCTACGCA	inactive: 0.0509
AGAGTCGG	inactive: -0.0944
AGAAAAGA	inactive: 0.0025
CACCAATG	inactive: 0.0193
GAACTCGA	inactive: 0.00047
AACTTGCC	inactive: 0.0621
AACCCGTG	inactive: -0.08

Sequence	PBM E-score
CGAAGTTC	inactive: -0.0365
GGAATTCC	inactive: -0.046
GAACCCGC	inactive: -0.227
AACGAGGA	inactive: 0.0777
AGAGTTAA	inactive: 0.028
CGGTCGGC	inactive: -0.282
GCAACCGA	inactive: -0.072
GGATGTGA	inactive: 0.081
AATAGTGG	inactive: 0.149
TCTAAGCA	inactive: 0.0357
AAAAATCT	inactive: 0.0529
AGCCACAA	inactive: -0.0654
CAAAATCC	inactive: 0.0624
ATAACCAA	inactive: 0.143
ATAATCCC	inactive: -0.0206
AAGTCACG	inactive: 0.0154
GACCTCGC	inactive: -0.0912
AATGCACG	inactive: 0.0389
AGTTTAGC	inactive: -0.00647
CAGTTTAC	inactive: 0.105
CGTTTAAA	inactive: 0.0872
CCGATGGA	inactive: -0.103
GAAGACAC	inactive: 0.145
ATGCGTTA	inactive: 0.051
GCTTCTTA	inactive: -0.0551

Sequence	PBM E-score
GAATCGCA	inactive: 0.00506
CGTAGCGC	inactive: -0.13
AATAGCAA	≥ 0.161
CGTAGTAG	inactive: 0.0178
ATTTCGAG	inactive: -0.00649
ATACGGAG	inactive: -0.0658
AGGGGCAG	inactive: -0.113
ACCGATAC	inactive: 0.0733
ACAAGACA	active: ≥ 0.352
GGTAAGTA	inactive: 0.0705
GCCGTAGA	inactive: -0.039
ATTGGTAG	inactive: 0.0945
ATCCCGAC	inactive: -0.0204
AAAAGCAA	inactive: 0.0603
ATAATCTC	inactive: 0.0581
TGAAGCAA	inactive: 0.0246
CCTGACTA	≥ 0.103
AGAATTAG	inactive: 0.0574
ATGCCTAC	inactive: -0.0611
GTTTGTCA	inactive: 0.187
CATTTACG	inactive: 0.0663
CCGCGCTC	inactive: -0.23
AACCTGCT	inactive: -0.00443
AATCGAGA	inactive: -0.00416
ATCGTTAG	inactive: -0.0181

Sequence	PBM E-score
ATGCGAAC	inactive: 0.0459
GGTCTTTA	inactive: 0.0116
ATGGTCCC	inactive: -0.0982
CGGTACTC	inactive: -0.0267
ATATTTAA	inactive: 0.199
GACATTGC	inactive: 0.149
CACCTTTC	inactive: -0.108
AAGAGCGG	inactive: -0.141
AGAGCAAT	inactive: -0.00702
TCACCCGA	inactive: -0.075
CACATCAC	inactive: 0.0974
AAGAGGAC	inactive: -0.0369
CTAAGTAC	inactive: 0.0839
AAAAAGAC	inactive: -0.00775
AGCTGATA	inactive: 0.0965
TCAGACGA	inactive: 0.0794
ATCCTGTC	inactive: 0.137
AACATAGT	inactive: 0.287
ATAGCTCA	inactive: -0.0365
CACTAAGA	inactive: 0.0597
CGGGCCAA	inactive: -0.248
GCATAAAC	inactive: 0.0658
GCAGCGCC	inactive: -0.261
ACGTAGCT	inactive: 0.0358
TGCCCTAA	inactive: -0.103

Sequence	PBM E-score
AAGATAAC	inactive: 0.144
ACTTTTTA	inactive: 0.0843
CGGTGTCC	inactive: -0.0474
GCAACGCA	inactive: -0.109
CTGGGTGA	inactive: -0.112
GGCGTGTA	inactive: 0.281
ATCGTAAA	inactive: 0.0906
AGACATCG	inactive: 0.0873
ATCCTGAA	≥ 0.0685
ATGCCAAA	inactive: 0.0619
CGATTACA	inactive: 0.307
CGGTAAAC	inactive: -0.00339
AATGGCGC	inactive: -0.159
AAGGTGGA	inactive: -0.0864
ACCGGTAT	inactive: -0.0718
CGACTCAA	inactive: 0.0205
GTCCCCGA	inactive: -0.0571
CGACGTAA	inactive: 0.04
ACTGCTAT	inactive: 0.00752
CACAGCAA	inactive: 0.108
ACTCGGTC	inactive: -0.0373
TAGACTCA	inactive: -0.0429
ACACCAGC	inactive: 0.0328
ACGCTTAA	inactive: 0.0309
GCGCAAGC	inactive: -0.2

Sequence	PBM E-score
GGGTAAGA	inactive: -0.102
ATTAGTTG	inactive: 0.186
GCCTACTA	inactive: 0.0515
CTAATACC	inactive: 0.0259
ACTAGTCC	inactive: 0.124
AACTCGCG	inactive: -0.00136
ATAATAAA	inactive: 0.124
AGGGGACC	inactive: -0.259
CGCTTTGA	inactive: -0.166
TACCATCA	inactive: 0.0931
AGTATTAG	inactive: 0.14
AAATCGGC	inactive: -0.148
CGGTGACC	inactive: -0.204
AGCAACCA	≥ 0.0429
CTGCCCGA	inactive: -0.114
AAAAACCT	inactive: 0.104
TCAAATCA	≥ 0.241
CGAGTCTA	inactive: -0.109
CAAGGGGA	inactive: -0.0103
AAGCGCCC	inactive: -0.264
AAAGGGTA	≥ 0.109
CACGGATG	inactive: 0.00606
AACTGATG	inactive: 0.0731
CCATCACA	inactive: -0.0311
AGGGCCTG	inactive: -0.122

Sequence	PBM E-score
GAACATTA	inactive: 0.219
ATTGCCTG	inactive: 0.0173
GAACTATA	inactive: 0.0858
ACTCTAGG	inactive: -0.0354
GTACGAAA	inactive: 0.128
AGTTATAT	inactive: 0.181
ACGCGCGA	inactive: -0.0622
CGGACAGC	inactive: -0.0438
CCGAGAGA	inactive: -0.166
GTTACCAA	inactive: 0.0951
ACAGAGTC	inactive: -0.00596
GAGTTTCC	inactive: -0.0594
GTTGCTCA	inactive: 0.105
AGCGCCAA	inactive: -0.205
CGGGACAG	inactive: -0.0457
AAAGAGCA	inactive: 0.0575
ACTCACCT	inactive: -0.0905
AAGGTTGC	inactive: -0.0566
ATCGATGG	inactive: 0.0724
AGAGGCCT	inactive: -0.198
GCCTCACC	inactive: -0.232
GGCTCGAC	inactive: -0.122
CGCTTGGA	inactive: -0.0438
